Assay results reported in PubChem BioAssay AID1460 (National Center for Advancing Translational Sciences (NCATS), 2008).
In all, about 270,000 compounds went through this assay and about 5,800 (2.1%) were called active. Inconclusive results, whose numbers are uncertain, are shown with a selection of clear calls. Calls come from the whole dose curve; as a rule, active = well fitted inhibition curve with a large enough effect; inconclusive = small, poorly fitted or top-dose-only effect; inactive = flat fitted curve, though single readings scatter. Potencies beside an inconclusive call are fits to weak or partial responses and may not hold up.

biological target: Microtubule-associated protein tau (Homo sapiens) (UniProt P10636); experiment: qHTS for Inhibitors of Tau Fibril Formation, Thioflavin T Binding; conditions: recombinant tau K18 P301L, heparin-induced fibrillization, ThT fluorescence; series mostly up to 57.4 µM; activity, negative = inhibition: at the top concentration; note: nearly all actives have a fitted effect of over 55% in size
How it was run: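 Using a mix of unlabeled (15 uM) and Alexa 594-labeled (0.24 uM) tau K18 P301L, heparin-triggered fibrillization over 6 hr at 37 C was scored by ThT fluorescence.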
% is set by controls: 0 for no effect and ±100 for the full control effect; potency is the fitted concentration of half-maximal effect; tags give direction and shape of the fitted curve.

Sequence of UniProt P10636 (P10636 whole entry, looked up): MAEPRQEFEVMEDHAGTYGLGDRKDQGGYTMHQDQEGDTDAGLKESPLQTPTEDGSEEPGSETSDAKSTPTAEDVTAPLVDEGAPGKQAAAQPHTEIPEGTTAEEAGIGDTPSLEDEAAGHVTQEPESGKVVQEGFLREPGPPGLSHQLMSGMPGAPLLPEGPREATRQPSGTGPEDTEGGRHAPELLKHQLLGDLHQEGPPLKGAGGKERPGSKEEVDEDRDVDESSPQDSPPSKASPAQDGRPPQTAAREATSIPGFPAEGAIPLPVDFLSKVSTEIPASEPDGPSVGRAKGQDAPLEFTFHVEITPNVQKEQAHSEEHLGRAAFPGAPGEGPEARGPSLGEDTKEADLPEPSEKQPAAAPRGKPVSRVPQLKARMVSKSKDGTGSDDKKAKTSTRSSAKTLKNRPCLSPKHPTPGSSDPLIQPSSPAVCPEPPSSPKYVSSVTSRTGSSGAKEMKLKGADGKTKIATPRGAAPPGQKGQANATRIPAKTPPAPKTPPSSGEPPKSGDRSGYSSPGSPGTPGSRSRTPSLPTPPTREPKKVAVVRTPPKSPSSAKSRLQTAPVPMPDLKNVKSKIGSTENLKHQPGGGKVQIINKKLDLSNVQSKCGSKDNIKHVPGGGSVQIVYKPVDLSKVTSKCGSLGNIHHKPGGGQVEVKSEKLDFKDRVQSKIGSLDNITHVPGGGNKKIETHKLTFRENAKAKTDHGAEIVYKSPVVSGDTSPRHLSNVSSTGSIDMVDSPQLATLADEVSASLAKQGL

| SMILES | Potency | activity, negative = inhibition |
| --- | --- | --- |
| O=C(C1=C[C@H](c2csc3ccccc23)C[C@H](OCCCCO)O1)N1CCN(Cc2ccccc2)CC1 | inconclusive: 17.8 µM [inhibitor, single point] | – |
| CC(=O)CCc1oc2ccc([N+](=O)[O-])cc2c1-c1ccc(C)o1 | inconclusive: 31.6 µM [inhibitor, single point] | – |
| CCCCOC(=O)CSC1=C(C#N)C(c2ccccc2OCC)C(C#N)C(=O)N1 (stereo unspecified) | inconclusive: 28.2 µM [inhibitor, partial curve] | – |
| Cc1nc2c(-c3ccccc3)c(C)nn2c(C)c1CCC(=O)NCCc1ccccc1 | – | inactive: -8.23% |
| CCOc1ccc(NC(=O)CSc2nnc(C(C)C)n2CC)cc1 | – | inactive: -1.7% |
| Cc1cc(/C=N/NC(N)=S)c(C)n1-c1ccc(Cl)cc1 | inconclusive: 11.2 µM [inhibitor, partial curve] | – |
| NC(=O)c1c(NC(=O)C2CCCO2)sc2c1CCCCC2 (stereo unspecified) | inconclusive: 20 µM [inhibitor, partial curve] | – |
| CCOC(=O)c1c(C)oc2ccc(OCC(N)=O)cc12 | – | inactive: -4.41% |
| COc1ccc2ccccc2c1/C=N/O | – | inactive: -6.47% |
| Cn1c(C(=O)Nc2ccc3c(c2)OCO3)cc2sccc21 | inconclusive: 8.91 µM [inhibitor, partial curve] | – |
| COC(=O)c1cc2c(ccn2-c2ccc(F)cc2)n1C(C)C | – | inactive: -17.5% |
| CC1(C)CC(=O)c2cc(-c3nc(-c4ccc(Cl)cc4)cs3)c(=O)[nH]c2C1 | – | inactive: -9.03% |
| c1ccc(C2Nc3ccccc3-c3nc4ccccc4n32)cc1 (stereo unspecified) | inconclusive: 28.2 µM [inhibitor, partial curve] | – |
| COc1ccc(CCNc2oc(COc3cccc(C)c3)nc2C#N)cc1OC | inconclusive: 1 µM [inhibitor, full curve] | – |
| CNc1nc(Nc2ccc(C)c(Cl)c2)nc(N)c1[N+](=O)[O-] | inconclusive: 3.98 µM [inhibitor, partial curve] | – |
| Cn1cc(C(c2ccccn2)c2cn(C)c3ccccc23)c2ccccc21 | inconclusive: 20 µM [inhibitor, partial curve, poor fit] | – |
| CC(C)Oc1ccc(NC(=O)c2cc3ccccc3o2)cc1 | – | inactive: -14.6% |
| CC[n+]1c(/C=C(\C)OC)sc2ccccc21 | inconclusive: 28.2 µM [inhibitor, single point] | – |
| CCN1CCc2c(sc(-n3cccc3)c2C(C)NC(=O)Nc2cc(Cl)c(OC)cc2OC)C1 (stereo unspecified) | inconclusive: 15.8 µM [inhibitor, partial curve] | – |
| Fc1ccccc1COc1ccc(/C=N/NC(=S)NCc2ccccc2)cc1 | – | inactive: -8.36% |
| C/C(Cn1cnc([N+](=O)[O-])n1)=N\NC(=O)c1ccccc1O | – | inactive: -15.6% |
| COc1ccc(C(=O)N2CCN(c3ccc([N+](=O)[O-])c(NCCc4ccc(OC)c(OC)c4)c3)CC2)cc1 | inconclusive: 12.6 µM [inhibitor, partial curve] | – |
| Cc1ccc(NC(=O)CC2C(=O)NCCN2C(=S)Nc2ccccc2)c(C)c1 (stereo unspecified) | – | inactive: -8.57% |
| O=C(/C=C/c1ccc(Br)o1)Nc1nnc(C2CC2)s1 | – | inactive: -10.4% |

| SMILES | Potency | activity, negative = inhibition |
| --- | --- | --- |
| Cc1cc(O)c(Oc2cc(C)cc(O)c2O)c(O)c1 | active: 5.62 µM | – |
| Cc1nc([N+](=O)[O-])c(Br)n1CC(=O)c1ccccc1 | inconclusive: 20 µM [inhibitor, partial curve] | – |
| Cc1ccc2nc(-c3ccc(SCC(=O)Nc4ccc5c(c4)OCCO5)nc3)[nH]c2c1 | inconclusive: 0.891 µM [inhibitor, full curve] | – |
| CCNC(=S)NNC(=O)c1cc(-c2cccc(OC)c2)nc2ccccc12 | – | inactive: 4.87% |
| CCC(=O)N1c2ccccc2C(C)(c2ccccc2)CC1(C)C (stereo unspecified) | inconclusive: 15.8 µM [inhibitor, partial curve] | – |
| CN(C)c1ccc(C(=O)Nc2c(C(=O)NC(C)(C)C)oc3ccccc23)cc1 | inconclusive: 8.91 µM [inhibitor, partial curve] | – |
| N/C(=N\OC(=O)COc1ccc(Br)cc1)c1ccncc1 | – | inactive: -3.94% |
| COc1ccc(OC)c(C2=NOC(C(=O)N3CCCc4ccccc43)C2)c1 (stereo unspecified) | – | inactive: -16.7% |
| CS(=O)(=O)C1=NSC2=NC(=O)/C(=C\c3cccn3-c3ccccc3Cl)C(=N)N21 | inconclusive: 15.8 µM [inhibitor, single point] | – |
| CCc1ccccc1N1CC(c2nc3ccccc3n2CCOc2ccc(Cl)c(C)c2)CC1=O (stereo unspecified) | inconclusive: 25.1 µM [inhibitor, single point] | – |
| CCn1c(C(=O)N2CCC(C(=O)N3CCN(c4ccc(OC)cc4)CC3)CC2)cc2sccc21 | inconclusive: 22.4 µM [inhibitor, partial curve, poor fit] | – |
| COc1ccc(CCNc2nc3ccc(C)cc3n3cnnc23)cc1OC | inconclusive: 35.5 µM [inhibitor, single point] | – |
| Nc1cc(-c2ccc(OC(F)(F)F)cc2)nn1-c1ccc(Cl)c(Cl)c1 | active: 20 µM | – |
| O=C(c1cccn1-c1nnc(N2CCCCC2)s1)N1CCN(c2ccc(Cl)cc2)CC1 | inconclusive: 15.8 µM [inhibitor, single point] | – |
| c1ccc2cc(-c3cc4ccccn4c3)ccc2c1 | inconclusive: 28.2 µM [inhibitor, partial curve] | – |
| CC(=O)c1cccc(NC(=O)CCc2nc3cccnc3n2Cc2cccs2)c1 | – | inactive: -11.2% |
| CC1=C(/C=C/C(C)=C/C=C/C(C)=C/C(=O)Nc2ccc(O)cc2)C(C)(C)CCC1 | active: 15.8 µM | – |
| Nc1[nH]n2c(=O)c3c(nc2c1N=Nc1ccc(Cl)cc1)CCCC3 | active: 1.41 µM | – |
| O=C1[C@@H]2[C@H]3[C@H](O)[C@H](O)C/C(=N/OCc4ccccc4)[C@H]3CC[C@H]2C(=O)N1c1ccc(F)cc1F | – | inactive: -6% [at 11.5 µM] |
| Cc1cc(NC(=O)c2cccs2)n(-c2nc3ccccc3[nH]2)n1 | inconclusive: 1.26 µM [activator, full curve, poor fit] | – |
| O=C(N/N=C/c1cc([N+](=O)[O-])cc(Br)c1O)C12CC3CCC(CC(C3)C1)C2 | inconclusive: 12.6 µM [inhibitor, partial curve, poor fit] | – |
| O=c1c(N2CCOCC2)nsnc1N1CCOCC1 | – | inactive: 5.39% |
| CSc1ccc(/C=N/N2CCN(Cc3ccc(C)cc3C)CC2)cc1 | inconclusive: 7.94 µM [inhibitor, partial curve] | – |
| O=C(Nc1ccc(Cl)cc1C(=O)O)c1ccc2c(c1)C(=O)N(Cc1ccco1)C2=O | inconclusive: 22.4 µM [inhibitor, partial curve] | – |

| SMILES | Potency | activity, negative = inhibition |
| --- | --- | --- |
| Cc1cccc(OCC(=O)NN2C(=O)C3C4C=CC(O4)C3C2=O)c1 (stereo unspecified) | – | inactive: -9.27% |
| CCCCN(c1ccccc1)c1ncnc(N)c1[N+](=O)[O-] | – | inactive: -5.37% |
| Cc1cccc(OCc2nnc(SCC(=O)N3CCc4ccccc43)n2C)c1 | inconclusive: 6.31 µM [inhibitor, full curve] | – |
| Cc1cccc(-c2nnc(SCC(=O)Nc3nc4c(s3)CCCC4)n2C)c1 | inconclusive: 14.1 µM [inhibitor, partial curve] | – |
| COc1ccc(C2=NS(=O)(=O)N(C)C(C(=O)Nc3ccc(OC(F)(F)F)cc3)=C2)cc1 | – | inactive: -0.888% |
| Nc1ccccc1Sc1ccc(C(F)(F)F)cc1[N+](=O)[O-] | – | inactive: -12.6% |
| COc1ccc(/C=N/NC(=O)c2cccnc2)cc1CN1CCc2ccccc2C1 | inconclusive: 10 µM [inhibitor, partial curve] | – |
| c1ccc(N2CCN(Cc3nnc(-c4ccc5c(c4)OCO5)o3)CC2)cc1 | – | inactive: -16.7% |
| Cc1cc(N2CCOCC2)ccc1/C=C1\NC(=O)N(CC(=O)Nc2ccc(F)cc2)C1=O | inconclusive: 8.91 µM [inhibitor, partial curve] | – |
| Cc1cccc(N/C(N)=N/c2nc3c(c(=O)[nH]2)CCCC3)c1 | inconclusive: 3.98 µM [inhibitor, full curve] | – |
| CC(C)(C)C1CCc2c(sc(NC(=O)c3ccccc3F)c2C(=O)NCc2ccco2)C1 (stereo unspecified) | – | inactive: -2.65% |
| O=C(NCCn1cc(SCc2ccccc2)c2ccccc21)c1cccs1 | inconclusive: 11.2 µM [inhibitor, partial curve, poor fit] | – |
| C=C1CCC2C(CC2(C)C)C(=C)CC/C1=N/O (stereo unspecified) | – | inactive: 1.11% |
| CCCC(NCC(O)COc1ccc(-c2ccccc2)cc1)c1ccccc1 (stereo unspecified) | inconclusive: 7.94 µM [inhibitor, partial curve] | – |
| Cc1ccc(C)c(NC(=S)NNC(=O)c2csc(C)c2C)c1 | – | inactive: -4.26% |
| COC(=O)NNC(=S)Nc1cc(OC)ccc1OC | inconclusive: 31.6 µM [inhibitor, partial curve, poor fit] | – |
| Cc1cc(N2CCN(C)CC2)nc2ccc(NC(=O)Nc3ccc(F)cc3F)cc12 | inconclusive: 14.1 µM [inhibitor, partial curve] | – |
| CCC(Oc1ccccc1)C(=O)N1CCN(Cc2cc(=O)n3nc(-c4cccc(C)c4)sc3n2)CC1 (stereo unspecified) | inconclusive: 5.62 µM [inhibitor, single point] | – |
| COc1ccc(-c2cc(-c3cc(OC)ccc3O)[nH]n2)cc1 | inconclusive: 1.58 µM [inhibitor, full curve] | – |
| COc1cccc2c1C(=O)c1c(O)c3c(c(O)c1C2=O)C[C@@](O)(C(=O)CO)C[C@@H]3O[C@@H]1C[C@H](N)[C@H](O)[C@H](C)O1 | active: 12.6 µM | – |
| N#Cc1nc(-c2ccco2)oc1NCCc1ccccc1 | inconclusive: 25.1 µM [inhibitor, partial curve] | – |
| CCOc1ccc(C2CC(c3cccc(OC)c3)n3nc(N)nc3N2)cc1 (stereo unspecified) | inconclusive: 15.8 µM [inhibitor, single point] | – |
| CC1CCN(S(=O)(=O)c2ccc(N/N=C(/C#N)C(N)=O)cc2)CC1 | inconclusive: 31.6 µM [inhibitor, partial curve] | – |
